These results are taken from paper PMC7819943, “Rice protein-binding microarrays: a tool to detect cis-acting elements near promoter regions in rice”.

Some of the results follow.

In the experiment the target is T1, OsWOX13 (Oryza sativa, UniProt Q5QMM3 1-267).
T1 sequence: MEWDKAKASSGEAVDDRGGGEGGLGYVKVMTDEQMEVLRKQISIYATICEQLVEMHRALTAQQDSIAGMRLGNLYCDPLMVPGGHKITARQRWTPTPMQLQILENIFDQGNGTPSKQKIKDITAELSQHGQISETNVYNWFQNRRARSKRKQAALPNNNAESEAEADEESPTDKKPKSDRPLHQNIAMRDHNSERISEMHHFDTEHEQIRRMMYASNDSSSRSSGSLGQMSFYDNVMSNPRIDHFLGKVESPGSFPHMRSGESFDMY
The experiment is described as follows: protein-binding microarray (RPBM); PBS, 2% BSA, 51.3 ng/ul salmon testes DNA, 50 uM zinc acetate, 200 nM TF, 25 C, 1 h; high values mean tight binding. The conditions noted are these: protein: recombinant; tags: N-terminal polyhistidine and DsRed monomer fusion (pET32a); label: CyDye5-dUTP incorporated in the synthesized complementary strand; 3' TTTTT single-stranded linker to array surface; dsDNA, one strand shown. In outline:
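Ni–NTA purification followed expression in E. coli BL21-CodonPlus of transcription factors fused N-terminally to a polyhistidine tag and DsRed. At 200 nM in PBS with 2% BSA, salmon testes DNA and 50 µM zinc acetate, the protein was incubated for 1 h at 25 °C with a custom Agilent array that had been primer-extended with Cy5-dUTP and blocked with 2% BSA. After washing, the array was read on an Axon 4000B scanner. The binding signal is per-feature fluorescence intensity in arbitrary units.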
For the sequence “ATAATATTAATTACTATGTTTCCATTCATGTTCATGCACACGGAGTCACCTAGTGCAG”, the binding signal was 12100 fluorescence intensity (a.u.).

“TTTCTAATCACCTTGGATGCATGCTCTGCCGCCACCAACCCGGAGTCACCTAGTGCAG”: the binding signal is 3600 fluorescence intensity (a.u.).

Take “CAGAAATGATGAATGTTGTAACTACACTTCAGAAGGATAGCGGAGTCACCTAGTGCAG”: the binding signal was 6270 fluorescence intensity (a.u.).

Consider “AGCAAACATAATTAACATATATATAATAAAGCTCAAAGAGCGGAGTCACCTAGTGCAG”, for which the binding signal was 10700 fluorescence intensity (a.u.).

With “AACTATATAATTAGAAACACGAGGATGATAAGATTTGGTCCGGAGTCACCTAGTGCAG”, the binding signal was 8480 fluorescence intensity (a.u.).

Consider “CTATAAGATTTATTATGATAATTTATATTATAATAATTGTCGGAGTCACCTAGTGCAG”, for which the binding signal was 11000 fluorescence intensity (a.u.).

In the case of “AACATTCATACTAATTGGAAAGGGAGACCGCTCTTTGGGACGGAGTCACCTAGTGCAG”, the binding signal is 13900 fluorescence intensity (a.u.).

As to “CATTTGTTTACCAATCATTACGATGGTTTCTTATCATATTCGGAGTCACCTAGTGCAG”, the binding signal was 6610 fluorescence intensity (a.u.).

As for “TAATTTGACACTACCAATGATTTGGTAGGGCACCAAACCACGGAGTCACCTAGTGCAG”, the binding signal was 3500 fluorescence intensity (a.u.).

For “ATAAATTAAAACTTAATATGGTAACAGAGCTATAGTCATACGGAGTCACCTAGTGCAG”, the binding signal was 13500 fluorescence intensity (a.u.).

Consider “TTGAATTTGAAATTATCAAATTATACCAAATTGTACCTTGCGGAGTCACCTAGTGCAG”, for which the binding signal is 22600 fluorescence intensity (a.u.).

Consider “AATATGATAAAATAGTTGATTATCTACTTAAAAGAGAAGACGGAGTCACCTAGTGCAG”, for which the binding signal is 5740 fluorescence intensity (a.u.).

Regarding “CTTGATTTATTGATTGATTAATAAAACATTTTATTTCCAACGGAGTCACCTAGTGCAG”, the binding signal is 56900 fluorescence intensity (a.u.).

With “ATCACTTTCATTTACAGTTAACTTATTATAAACAGTGTGACGGAGTCACCTAGTGCAG”, the binding signal is 4640 fluorescence intensity (a.u.).

“TCTCGCTTCTGCCACTGCTGGCTGTGCTGCTTCCCTAGCTCGGAGTCACCTAGTGCAG”: the binding signal is 65100 fluorescence intensity (a.u.).

Turning to “TAGTTATAAACTGACGATTTATTATACGTGTCCACACGTGCGGAGTCACCTAGTGCAG”, the binding signal was 4170 fluorescence intensity (a.u.).

As to “TGAAGCTGTGTCAATCTACTGATCCAGGGCTTGATACAGTCGGAGTCACCTAGTGCAG”, the binding signal was 3590 fluorescence intensity (a.u.).

With “GGTTCATTAGTGGACATAATTAGTACCACCTTGTAAGTAGCGGAGTCACCTAGTGCAG”, the binding signal is 12200 fluorescence intensity (a.u.).

As for “CCGTTGTTTAACCCGTGATTTGAATCTCACCCTACCACGACGGAGTCACCTAGTGCAG”, the binding signal was 7860 fluorescence intensity (a.u.).

“GTAGTAGTACTTAATTAGTGATCATGAGTTGCTGACGCTTCGGAGTCACCTAGTGCAG”: the binding signal is 4260 fluorescence intensity (a.u.).

For “AAGATTTATGATTTTCTTACTAGAGAATTTAGATTTGCGTCGGAGTCACCTAGTGCAG”, the binding signal is 11000 fluorescence intensity (a.u.).

As to “GTAATTAATTTCACTTTATTCTTCTTATAGATTACTACTACGGAGTCACCTAGTGCAG”, the binding signal is 25300 fluorescence intensity (a.u.).

As to “CGCAAACAATTAGCACAACAATTAAATTAACTATATACGGCGGAGTCACCTAGTGCAG”, the binding signal was 24000 fluorescence intensity (a.u.).

Regarding “GTCTAATCATGGACTAATTAGGCTCAAAAGATTCATCTCGCGGAGTCACCTAGTGCAG”, the binding signal is 39000 fluorescence intensity (a.u.).

Consider “TCGTCTCTAATGACATTAATTAACAGAGAGAGCTTATATTCGGAGTCACCTAGTGCAG”, for which the binding signal was 8590 fluorescence intensity (a.u.).

Turning to “AACCTCAACCACGTCAATCAAAACGAACACTTTATTAACTCGGAGTCACCTAGTGCAG”, the binding signal was 6830 fluorescence intensity (a.u.).

For the sequence “TATAATTAATATCTAGTCTCACATGTCATACACACATGCACGGAGTCACCTAGTGCAG”, the binding signal is 18800 fluorescence intensity (a.u.).

In the case of “CATTTTGTTCATTCGGGTTTGATTGTGTCATAGTTCTATACGGAGTCACCTAGTGCAG”, the binding signal was 3390 fluorescence intensity (a.u.).

Consider “CCATTGAATTGATCAGATGAACCTGCGTGACTGCTTCACTCGGAGTCACCTAGTGCAG”, for which the binding signal was 14800 fluorescence intensity (a.u.).

On to “ATAGTTACAATGTAATTACATGCAAGTTATAGTGTAATTACGGAGTCACCTAGTGCAG”, for which the binding signal is 6110 fluorescence intensity (a.u.).

Turning to “CGAATCTTTTAATTAAAATTATGATAAGATAAGAGGTACACGGAGTCACCTAGTGCAG”, the binding signal was 15300 fluorescence intensity (a.u.).

Take “TTAGCTATCACAGACACAATCACACAACGATGGTAAAACACGGAGTCACCTAGTGCAG”: the binding signal was 6740 fluorescence intensity (a.u.).

Consider “TTAACATGTAATCAATTAAATACTAATTATTATAAACGTGCGGAGTCACCTAGTGCAG”, for which the binding signal was 53100 fluorescence intensity (a.u.).

For “AAGGAACAAATTAAACTGAAACCAGTTAATGTACATTTGCCGGAGTCACCTAGTGCAG”, the binding signal is 8230 fluorescence intensity (a.u.).

Take “TAGTAAATGATATCAATTTAGGTGGTGTTCTTTTCTTCTGCGGAGTCACCTAGTGCAG”: the binding signal was 26600 fluorescence intensity (a.u.).

Consider “TTTGATTTAATTTGTTCTGCAAACAGTCCGGAAAATGCCTCGGAGTCACCTAGTGCAG”, for which the binding signal was 53500 fluorescence intensity (a.u.).

For the sequence “ATGATTGTTGAAACAAAATTGCACAATAGACATGAGATTACGGAGTCACCTAGTGCAG”, the binding signal was 26600 fluorescence intensity (a.u.).

For the sequence “ATTAATTTGACCAACTTCATTCAACATGTAACATGGTCTCCGGAGTCACCTAGTGCAG”, the binding signal was 16600 fluorescence intensity (a.u.).

Regarding “CAAAATGACAGAGTGAGTAGGATAGATGGTACATGAAACACGGAGTCACCTAGTGCAG”, the binding signal was 3500 fluorescence intensity (a.u.).

Take “AATGTTAAATTTGATACTTATTTACTGGGCAGATTAACGCCGGAGTCACCTAGTGCAG”: the binding signal was 7410 fluorescence intensity (a.u.).

As for “AAGATTCTTAATTTCTTTCTATTGCTGTTGATATCTCATACGGAGTCACCTAGTGCAG”, the binding signal is 5060 fluorescence intensity (a.u.).

Regarding “CTAATTTAATTCGAAGAATGGCGCATGAGTTCGCGTGAAGCGGAGTCACCTAGTGCAG”, the binding signal was 3570 fluorescence intensity (a.u.).
